Assay results as given in PubChem BioAssay AID1346428 (National Center for Advancing Translational Sciences (NCATS), 2018).
Values joined by “and” are separate entries in the source; they are usually repeats but may differ in a detail not shown here. Equal entries are not always repeated. Among all 48,000 compounds or so, about 1,200 (2.5%) were called active. Inconclusive results (about 2%) are left out.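 How the source made its calls: active means activation of at least 60% and not above a set upper limit (about 1 call in 100 departs from these limits); inconclusive means activation of 40% to 60%, or above that upper limit; inactive means activation under 40%.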 The list shows a part of the results.

Biological target: Probable G-protein coupled receptor 32 (Homo sapiens) (UniProt O75388)
Assay: qHTS for Agonists of Human Resolvin D1 Receptor DRV1; further: 0% is about no effect
Settings: CHO-K1 GPR32 beta-arrestin PathHunter luminescence, 90 min; at 76.9 µM; hits give high values; zero percent set by DMSO-only wells
In short: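 PathHunter enzyme-fragment complementation, CHO-K1 GPR32 stable line; 2,500 cells/well, overnight attach; cpd 90 min 37 °C 5% CO2; detection reagent 1 h RT; chemiluminescence. DMSO = EC0.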

UniProt O75388, sequence (O75388 whole entry, looked up): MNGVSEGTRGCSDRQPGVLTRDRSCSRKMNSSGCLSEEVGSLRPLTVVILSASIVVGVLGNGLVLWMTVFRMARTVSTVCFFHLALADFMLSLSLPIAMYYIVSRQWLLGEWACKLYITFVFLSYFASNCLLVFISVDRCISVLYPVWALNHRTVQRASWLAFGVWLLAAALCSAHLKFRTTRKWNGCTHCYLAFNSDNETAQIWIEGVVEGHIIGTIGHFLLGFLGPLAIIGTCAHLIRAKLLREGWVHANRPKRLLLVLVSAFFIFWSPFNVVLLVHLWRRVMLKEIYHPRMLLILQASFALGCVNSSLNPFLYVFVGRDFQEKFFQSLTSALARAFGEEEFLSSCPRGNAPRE

activation, inactive:
COc1ccc(S(=O)(=O)Nc2ccc3c(c2)sc(=O)n3C)cc1Cl -8.39%, COc1ccccc1CNC(=O)c1ccc(-c2nc(CS(=O)c3ccc(C)cc3)c(C)o2)cc1 (stereo not drawn) 23.9%, Cc1ccc2c(c1)-c1onc(C(=O)N(C)c3cccc(C(F)(F)F)c3)c1CO2 21.8%, Cc1ccc2c(CC(=O)Nc3cccc(C(F)(F)F)c3)coc2c1 36.4%, CC1(C)Cc2c(c(N3CCOCC3)nc3sc(C(=O)Nc4ccc(Cl)cc4)c(N)c23)CO1 -9.59%, Cc1cccc(NC(=O)CSc2nc(-c3cccc(C)c3)nc3c2Cc2c(CO)cnc(C)c2O3)c1 16.1%, CCOc1ccc(S(=O)(=O)Nc2cccc(-c3ccc(N4CCCC4)nn3)c2)cc1 -1.02%, CCc1nc2ccc(C(=O)NCc3ccc(OC)c(OC)c3)cc2nc1CC -13.7%, CCCCOc1ccc(C(=O)Nc2cc(-c3ccc(C)cc3)no2)cc1 6.74%, CCOC(=O)c1sc(N2C(=O)c3oc4ccccc4c(=O)c3C2c2ccc(C(C)(C)C)cc2)nc1C (stereo not drawn) -3.32%, CCOC(=O)COc1ccc(/C=C(\C#N)c2nc3ccc(C)cc3[nH]2)cc1OC 39%, Cc1ccccc1CNC(=O)Cn1c(C)c2cnn(-c3ccccc3)c(=O)c2c1C -12.3%, Cc1oc2ncn(CC(C)C)c(=O)c2c1C(=O)NCCc1ccc(Cl)cc1 -10.4%, Cc1cccn2c3c(c(=O)nc12)C(c1cccc(F)c1)CC(=O)N3 (stereo not drawn) 3.54%, Cc1ccc(CNC(=O)c2ccc3c(c2)CCN3S(=O)(=O)c2ccccc2)cc1 -7.94%, CN1C[C@@H]2C[C@H]1CN2c1cc2c(cc1F)c(=O)c(C(=O)O)cn2C1CC1 -3.51%, O=C(Cn1cnc2nc3c(cc2c1=O)CCCC3)N1CCN(c2cccc(C(F)(F)F)c2)CC1 -5.78%, CCOc1ccc(OCC)c(NS(=O)(=O)c2c(C)[nH]c(=O)[nH]c2=O)c1 -12.5%, Cc1ccc(C)c(NC(=O)CSc2c(C)cnc3c2c(=O)n(C)c(=O)n3C)c1 10.5%, N[C@@H](Cc1c[nH]c2ccc(O)cc12)C(=O)O -18.6% and 14.8%, COc1ccc(CCNC(=O)c2csc3c2CCCCC3)c(OC)c1 0.748%, COc1ccc(Cn2c(C(=O)O)c(CNC3CCCC3)c3ccc(C)cc32)cc1 6.1%, CC(=O)c1ccc(S(=O)(=O)Nc2ccc(-c3ccc(N4CCCCC4)nn3)cc2)cc1 -9.6%, Cc1ccc(N(C)C(=O)CC(C)S(=O)(=O)c2ccc3c(c2)NC(=O)CO3)cc1 (stereo not drawn) 30.1%, CCc1ccc(NC(=O)Cn2ccn(-c3ccc(OC)cc3)c(=O)c2=O)cc1 -45.9%, CCC(=O)N1c2ccccc2CC1C(=O)N1CCN(c2cccc(OC)c2)CC1 (stereo not drawn) 11.6%, Cc1cccc(NC(=O)CC2Nc3cccc4cccc(c34)NC2=O)c1 (stereo not drawn) -13.1%, COC(=O)c1cc2oc(C)cc2n1Cc1cc(C)ccc1C -25.6%, Cc1ccc(C)c(NC(=O)Cn2ncc3c([nH]c4ccccc43)c2=O)c1 -3.91%, CCOc1ccc(NC(=O)CSc2nc(-c3cccc(Cl)c3)nc3c2Cc2c(CO)cnc(C)c2O3)cc1 -10.9%, COc1ccc(C2c3c(n(C)c4ccccc34)C(=O)N2CC(=O)Nc2c(C)cc(C)cc2C)cc1 (stereo not drawn) -20.7%, CC(C)Cn1cc(NC(=O)NCc2ccc(Cl)cc2)c2ccccc2c1=O -40.3%, CCC(=O)N1c2ccccc2CC1C(=O)NCCCN1CCN(c2cccc(Cl)c2)CC1 (stereo not drawn) 23.9%, Cc1ccc(C)c(NC(=O)CSc2nc(=O)n(CCN3CCOCC3)c3c2CCC3)c1 -4.56%, COc1cc2c(cc1OC)C(COc1ccc3c(C)cc(=O)oc3c1)N(C(=O)c1ccc(C)cc1)CC2 (stereo not drawn) -9.4%, COc1ccc(Br)c2c1-c1nc(NC(=O)c3ccc(F)cc3)sc1C2 -2.62%, CCOC(=O)N1CCC(NC(=O)c2ccc3c(c2)N(Cc2ccccc2)C(=O)c2ccccc2S3(=O)=O)CC1 -28%, Cc1c(C(=O)NCc2ccccc2Cl)sc2nc3n(c(=O)c12)CCCC3 6.5%, CCOc1ccccc1CNC(=O)C(CC)n1nc(C)c2c(C)n(-c3ccccc3)nc2c1=O (stereo not drawn) -15.9%, O=C(Nc1ccc(Cl)cc1)c1ccc2oc(=O)n(Cc3ccccc3)c2c1 25.4%, Cc1ccc2c(c1)C(=O)OC(C(=O)Nc1ccc(C(=O)O)cc1)C2 (stereo not drawn) -13.5%, COCCCNc1nc2c(c(=O)n(Cc3ccccc3)c(=O)n2C)n1C -4.94%, COc1ccc(C(=O)CN2CCN(S(=O)(=O)c3ccc(F)cc3)CC2)cc1 -20.9%, Cc1cc(NC(=O)c2ccc(F)cc2)ccc1-c1cc2ccccc2oc1=O -2.13%, Cc1ccc(Cl)cc1NC(=O)c1csnn1 9.51%, CC(=O)OC1=C(C(C)=O)N(Cc2ccccc2)S(=O)(=O)c2ccccc21 -10.8%, CC(=O)N1CCC2(CC1)OC(=O)C(C)=C2C(=O)NCc1ccccc1Cl 0.546%, COc1ccc(-c2cn3c(n2)sc2cc(C(=O)Nc4ccc(F)cc4)ccc23)cc1 -7.63%, CCCCSc1nnc2[nH]c(=O)cc(C)n12 26.9%, O=C(c1cc(-c2ccc(Br)cc2)n[nH]1)N1CCN(S(=O)(=O)c2ccc(Br)s2)CC1 -5.67%, CC1CCN(C(=O)CCS(=O)(=O)c2cc3c(cc2Cl)NC(=O)CO3)CC1 -2.27%, CCOC(=O)c1nnn(CC(=O)NC(=O)Nc2ccccc2F)c1C(=O)OCC 4.89%, Fc1ccc(Nc2nc(SCc3cccc(F)c3)nc3ccccc23)cc1 -8.92%, Cc1cccc(CC(=O)NC2CC(=O)N(c3ccc4c(c3)OCCO4)C2)c1 (stereo not drawn) 7.61%, CCOc1ccc(Nc2nc(N)c(C(=O)c3ccccc3Cl)s2)cc1 27.4%, CCN(CC)S(=O)(=O)c1ccc(NC(=O)c2nn(C)c3c2CSc2ccccc2-3)cc1 -1.9%, CCC(=O)N1CCc2cc(Br)cc(S(=O)(=O)CCC(=O)Nc3ccc(CC)cc3)c21 13.7%, Cc1ccccc1CSc1ncc(Cl)c(C(=O)NCc2ccccc2)n1 0.513%, CCOC(=O)c1ccc(N2C(=O)c3[nH]nc(-c4ccc(C)cc4)c3C2c2ccc(O)cc2)cc1 (stereo not drawn) -0.183%, COc1ccc(Nc2ncnc3c2cnn3-c2cc(Cl)ccc2C)cc1OC 12.6%, Cc1cccc(-c2nc(SCCCOc3cc(C)c(Cl)c(C)c3)n3[nH]c(=O)cc3n2)c1 -45.5%, CCOc1ccc(OCCOCCn2c(-c3ccc(Cl)cc3)nc3ccccc3c2=O)cc1 -8.34%, CCOC(=O)c1ccc(NC(=O)CCCn2nc(C)c3sc4ccccc4c3c2=O)cc1 -13%, COc1ccc2c(c1)c1c(c(=O)n(CCc3ccccc3)c(=O)n1Cc1cccc(C)c1)n2C -9.7%, CSc1ncc(C(=O)NCc2ccc(F)cc2)c(-c2ccccc2)n1 -7.9%, CCCCN(CC)CCCNC(=O)Cn1nc(CC)n2c(cc3sccc32)c1=O -12.1%, Cc1ccc(C(=O)OC2=C(C(=O)c3ccccc3)N(C)S(=O)(=O)c3ccccc32)cc1 -34.5%, COC(=O)CC(=O)CSc1nc2cc(C(=O)NC(C)C)ccc2c(=O)n1CCc1ccccc1 7.98%, CCCc1oc2ccc(NS(=O)(=O)c3ccc(OCC)cc3)cc2c1C(=O)OCC -31.5%, O=C(Cc1ccc(-c2ccccc2)cc1)NCCS(=O)(=O)N1CCN(c2cccc(Cl)c2)CC1 -2.97%, CS(=O)(=O)c1ncc(Cl)c(C(=O)N2CCN(c3cccc(Cl)c3)CC2)n1 -22.7%, O=C(CN1C(=O)COc2ccc(S(=O)(=O)N3CCOCC3)cc21)NCc1ccc(Cl)cc1 -13.7%, CCN(C(=O)CSc1nnc(-c2cc3occc3n2C)n1-c1ccccc1C)c1ccccc1 -4.42%, Cc1nc2cc(-c3ccc(Cl)cc3)nn2c(C)c1CCC(=O)N1CCN(c2ccccc2)CC1 -0.273%, Cc1oc2ncn(CC(C)C)c(=O)c2c1C(=O)NCc1cccc(Cl)c1 -25.2%, CC1c2ccccc2CN1NC(=O)c1ccc(Cl)c(S(N)(=O)=O)c1 (stereo not drawn) -21.6%, CCOc1ccc(Nc2sc(C(=O)c3ccc(F)cc3)c(N)c2S(=O)(=O)c2ccc(C)cc2)cc1 -1.91%, Cc1ccc(-c2onc(C)c2C)cc1S(=O)(=O)N1CCC(C)CC1 -7.65%, Cc1ccc(Cn2c(C(=O)Nc3ccc(Cl)cc3)cc3sccc32)cc1 -4.18%, CCOc1ccc(C2C(=O)N(C3CCCCC3)CC(=O)N2Cc2ccccc2OC)cc1OC (stereo not drawn) -13.1%, CC(C)Oc1ccc(CNC(=O)c2cc3cccc4c3n2CC(C)S4)cc1 (stereo not drawn) -19.6%, CCc1ccc(-c2nc3c(c(SCc4ccccc4)n2)Cc2c(CO)cnc(C)c2O3)cc1 8.66%

activation, active:
CCC1CCCCN1Cc1c(O)ccc2c(=O)c(Oc3ccccc3Cl)c(C(F)(F)F)oc12 (stereo not drawn) 102%
